The other results are listed elsewhere or left out. The list includes weakly bound sequences.

The target in the assay is T1, MBP-FoxP3dN (UniProt Q99JB6).
T1 sequence: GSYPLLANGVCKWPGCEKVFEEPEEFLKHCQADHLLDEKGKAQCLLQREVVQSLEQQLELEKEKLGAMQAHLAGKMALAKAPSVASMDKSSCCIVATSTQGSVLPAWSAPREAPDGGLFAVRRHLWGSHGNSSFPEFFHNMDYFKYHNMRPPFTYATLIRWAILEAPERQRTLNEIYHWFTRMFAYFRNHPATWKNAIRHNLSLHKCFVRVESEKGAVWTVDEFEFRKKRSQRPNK
The assay is described as follows: PD-seq (MBP pull-down with sequencing). Particulars: 20 mM Tris-HCl pH 7.5, 100 mM NaCl, 1.5 mM MgCl2, 0.4 uM protein, 0.1 uM dsDNA library, 30 min, room temperature, amylose pull-down; high values mean tight binding; double strand, one strand shown.
With “GATGATTGTTCTCCCAGCTGATGAATTACCAGAATCGAGTAAACAAATTTTCCTAATCTTTCTGTTCAAGCGCCATCTAC”, the binding signal (RPM ratio (pull-down/input)) was 0.217.

Turning to “GATGATTGTTCTCCCAGCTGATGAATTACTCAGATCGAGTAAACAAATTTTCCTAATCTTTCTGTTCAAGCGCCATCTAC”, the binding signal (RPM ratio (pull-down/input)) was determined as 0.213.

Turning to “GATGATTGTTCTCCCAGCTGATGAATTCTCCGTTTCGAGTAAACAAATTTTCCTAATCTTTCTGTTCAAGCGCCATCTAC”, the binding signal (RPM ratio (pull-down/input)) came out at 0.24.

“GATGATTGTTCTCCCAGCTGATGAATTAGGTGCATCGAGTAAACAAATTTTCCTAATCTTTCTGTTCAAGCGCCATCTAC”: the binding signal (RPM ratio (pull-down/input)) stood at 1.66.

For “GATGATTGTTCTCCCAGCTGATGAATTCACGCGATCGAGTAAACAAATTTTCCTAATCTTTCTGTTCAAGCGCCATCTAC”, the binding signal (RPM ratio (pull-down/input)) is 0.823.

Take “GATGATTGTTCTCCCAGCTGATGAATTTGAAGTATCGAGTAAACAAATTTTCCTAATCTTTCTGTTCAAGCGCCATCTAC”: the binding signal (RPM ratio (pull-down/input)) was 0.616.

With “GATGATTGTTCTCCCAGCTGATGAATTGTAGCTCTCGAGTAAACAAATTTTCCTAATCTTTCTGTTCAAGCGCCATCTAC”, the binding signal (RPM ratio (pull-down/input)) was 0.791.

As to “GATGATTGTTCTCCCAGCTGATGAATTCAAGTTGTCGAGTAAACAAATTTTCCTAATCTTTCTGTTCAAGCGCCATCTAC”, the binding signal (RPM ratio (pull-down/input)) was determined as 0.668.

Turning to “GATGATTGTTCTCCCAGCTGATGAATTGATTGCGTCGAGTAAACAAATTTTCCTAATCTTTCTGTTCAAGCGCCATCTAC”, the binding signal (RPM ratio (pull-down/input)) was 1.43.

Regarding “GATGATTGTTCTCCCAGCTGATGAATTAGCTATTTCGAGTAAACAAATTTTCCTAATCTTTCTGTTCAAGCGCCATCTAC”, the binding signal (RPM ratio (pull-down/input)) was 1.98.

Take “GATGATTGTTCTCCCAGCTGATGAATTGAGGGTTTCGAGTAAACAAATTTTCCTAATCTTTCTGTTCAAGCGCCATCTAC”: the binding signal (RPM ratio (pull-down/input)) worked out at 0.656.

As to “GATGATTGTTCTCCCAGCTGATGAATTGAATAAATCGAGTAAACAAATTTTCCTAATCTTTCTGTTCAAGCGCCATCTAC”, the binding signal (RPM ratio (pull-down/input)) was 0.242.

For “GATGATTGTTCTCCCAGCTGATGAATTAACCATTTCGAGTAAACAAATTTTCCTAATCTTTCTGTTCAAGCGCCATCTAC”, the binding signal (RPM ratio (pull-down/input)) turned out to be 0.352.

Regarding “GATGATTGTTCTCCCAGCTGATGAATTAAATGCGTCGAGTAAACAAATTTTCCTAATCTTTCTGTTCAAGCGCCATCTAC”, the binding signal (RPM ratio (pull-down/input)) turned out to be 1.47.

With “GATGATTGTTCTCCCAGCTGATGAATTGCTGGAGTCGAGTAAACAAATTTTCCTAATCTTTCTGTTCAAGCGCCATCTAC”, the binding signal (RPM ratio (pull-down/input)) was determined as 0.345.

Regarding “GATGATTGTTCTCCCAGCTGATGAATTAACATTTTCGAGTAAACAAATTTTCCTAATCTTTCTGTTCAAGCGCCATCTAC”, the binding signal (RPM ratio (pull-down/input)) was 0.441.

As to “GATGATTGTTCTCCCAGCTGATGAATTACGGATGTCGAGTAAACAAATTTTCCTAATCTTTCTGTTCAAGCGCCATCTAC”, the binding signal (RPM ratio (pull-down/input)) turned out to be 0.504.

In the case of “GATGATTGTTCTCCCAGCTGATGAATTGAGGATTTCGAGTAAACAAATTTTCCTAATCTTTCTGTTCAAGCGCCATCTAC”, the binding signal (RPM ratio (pull-down/input)) came to 0.292.

Turning to “GATGATTGTTCTCCCAGCTGATGAATTCTCAGAATCGAGTAAACAAATTTTCCTAATCTTTCTGTTCAAGCGCCATCTAC”, the binding signal (RPM ratio (pull-down/input)) was 0.166.

Consider “GATGATTGTTCTCCCAGCTGATGAATTACCGGAGTCGAGTAAACAAATTTTCCTAATCTTTCTGTTCAAGCGCCATCTAC”, for which the binding signal (RPM ratio (pull-down/input)) stood at 0.208.

Take “GATGATTGTTCTCCCAGCTGATGAATTCTCGTAGTCGAGTAAACAAATTTTCCTAATCTTTCTGTTCAAGCGCCATCTAC”: the binding signal (RPM ratio (pull-down/input)) amounted to 0.3.

In the case of “GATGATTGTTCTCCCAGCTGATGAATTGCCTATATCGAGTAAACAAATTTTCCTAATCTTTCTGTTCAAGCGCCATCTAC”, the binding signal (RPM ratio (pull-down/input)) turned out to be 0.625.

As for “GATGATTGTTCTCCCAGCTGATGAATTCTGTGGCTCGAGTAAACAAATTTTCCTAATCTTTCTGTTCAAGCGCCATCTAC”, the binding signal (RPM ratio (pull-down/input)) worked out at 1.13.

On to “GATGATTGTTCTCCCAGCTGATGAATTGAGCTGATCGAGTAAACAAATTTTCCTAATCTTTCTGTTCAAGCGCCATCTAC”, for which the binding signal (RPM ratio (pull-down/input)) turned out to be 0.446.

Consider “GATGATTGTTCTCCCAGCTGATGAATTGAGGTAGTCGAGTAAACAAATTTTCCTAATCTTTCTGTTCAAGCGCCATCTAC”, for which the binding signal (RPM ratio (pull-down/input)) worked out at 0.409.

As for “GATGATTGTTCTCCCAGCTGATGAATTTGGGCGATCGAGTAAACAAATTTTCCTAATCTTTCTGTTCAAGCGCCATCTAC”, the binding signal (RPM ratio (pull-down/input)) stood at 0.578.

Take “GATGATTGTTCTCCCAGCTGATGAATTTATTATCTCGAGTAAACAAATTTTCCTAATCTTTCTGTTCAAGCGCCATCTAC”: the binding signal (RPM ratio (pull-down/input)) was determined as 5.36.

Consider “GATGATTGTTCTCCCAGCTGATGAATTTAGACGATCGAGTAAACAAATTTTCCTAATCTTTCTGTTCAAGCGCCATCTAC”, for which the binding signal (RPM ratio (pull-down/input)) amounted to 0.303.

In the case of “GATGATTGTTCTCCCAGCTGATGAATTTCGCTTCTCGAGTAAACAAATTTTCCTAATCTTTCTGTTCAAGCGCCATCTAC”, the binding signal (RPM ratio (pull-down/input)) worked out at 1.88.

Consider “GATGATTGTTCTCCCAGCTGATGAATTACCTATGTCGAGTAAACAAATTTTCCTAATCTTTCTGTTCAAGCGCCATCTAC”, for which the binding signal (RPM ratio (pull-down/input)) came out at 0.384.

Turning to “GATGATTGTTCTCCCAGCTGATGAATTAAATCGGTCGAGTAAACAAATTTTCCTAATCTTTCTGTTCAAGCGCCATCTAC”, the binding signal (RPM ratio (pull-down/input)) turned out to be 0.215.

(Values after paper PMC12820563.)
